# Hit rate of the full screen: of about 360,000 compounds, about 7,500 (2.1%) were called active. Inconclusive means that the source gave no clear call. Such entries were picked first, then a sample of the others. The call rests on the fitted dose curve; in most records, active means well fitted cell-killing curve with a large enough effect; inconclusive means small, poorly fitted or top-dose-only effect, or effect the other way, or another doubt; inactive means no such curve, though single readings can be large or run the other way. Potencies of inconclusive entries are left out as doubtful fits.
# Assay: qHTS for induction of synthetic lethality in tumor cells producing 2HG: qHTS for the HT-1080-IDH1KD cell line;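 on activity, negative = toxicity: 0% = DMSO wells and -100% = cell-free medium wells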
# Conditions: HT-1080 IDH1 knockdown viability, ATP luminescence, 48 h; activity, negative = toxicity: at 46.1 µM (top of the series) unless noted
# Procedure, shortened: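 Viability of IDH1-knockdown HT-1080 fibrosarcoma cells was assessed by CellTiter-Glo after 48 h at 37 °C with titrated compound; concentration-effect curves were classified by fit quality and response size.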
# Potency means the concentration at half of the fitted maximal effect; tags describe the fitted curve by direction and shape.
Compound,"activity, negative = toxicity",Potency
CC(NCCS(=O)(=O)c1ccc(Cl)cc1)c1cccc(Cl)c1 (stereo not drawn),inactive: -11.3%,
CC(=O)Nc1ccc(-c2csc(NC(=O)C3CCN(S(=O)(=O)c4cccs4)CC3)n2)cc1,,"inconclusive [cytotoxic, single point]"
CC1CCC(NC(=O)CC(C)(C)Cc2nc3ccccc3c(=O)[nH]2)CC1 (stereo not drawn),,"inconclusive [cytotoxic, single point]"
COc1ccc(C2=Nn3c(nnc3C3CCCCC3)SC2)cc1OC,,"inconclusive [cytotoxic, partial curve]"
CCn1c2ccccc2c2cc(NC(=O)c3ccc(=O)oc3)ccc21,,active: 29.1 µM
Cc1ccc(C2=NN=C(NC(=O)CSc3nncn3C)SC2)cc1,,"inconclusive [cytotoxic, single point]"
Cc1ccccc1Cn1cc(/C=N/n2cnnc2)c2ccccc21,,"inconclusive [cytotoxic, single point]"
O=C(Cn1cnc2ccccc2c1=O)Nc1ccc(S(=O)(=O)N2CCCC2)cc1,,"inconclusive [rising, partial curve]"
COc1ccc(-c2csc3ncnc(N4CCN(c5cccc(C)c5C)CC4)c23)cc1,,"inconclusive [cytotoxic, single point]"
CC1(C(=O)Nc2cnc3ccccc3c2)CCN1Cc1ccc(OC(F)(F)F)cc1 (stereo not drawn),,"inconclusive [cytotoxic, single point]"
CC(C)CCNC(=O)C(c1ccc(O)cc1)N(Cc1cccs1)C(=O)C1COc2ccccc2O1 (stereo not drawn),,"inconclusive [cytotoxic, single point]"
Cc1cc(/C=N/n2c(COc3ccccc3C)nc3ccccc3c2=O)c(O)c([N+](=O)[O-])c1,,"inconclusive [cytotoxic, full curve]"
COc1cc2c(c(OC)c1OC)-c1ccc(SC)c(=O)cc1C(NC=O)CC2 (stereo not drawn),,"inconclusive [cytotoxic, full curve, poor fit]"
CC(C)[C@@H]1CC[C@@H](C)C[C@H]1OC(=O)C[n+]1cc(-c2ccc(Cl)cc2)n2c1CCCCC2,,active: 7.31 µM
Cc1ccc(CNC(=O)c2ccc(NS(=O)(=O)c3c(C)noc3C)cc2)cc1,inactive: -6.26%,
CC(=O)c1cc(NC(=O)c2ccc(C)cc2)c(=O)oc1/C=C/N(C)C,inactive: -0.664%,
Cc1cc(OCC(=O)NCCc2ccc(S(N)(=O)=O)cc2)c2c(C)c(C)c(=O)oc2c1,,"inconclusive [cytotoxic, single point]"
CCOc1cc2[nH]c(=S)n(Cc3ccc(C(=O)NCCCN(CC)CC)cc3)c(=O)c2cc1OCC,,"inconclusive [cytotoxic, single point]"
CCN1/C(=C/c2ccc3cc(C)ccc3[n+]2CC)Sc2ccccc21,,active: 11.6 µM
COc1ccc(CN2C(=O)C(CC(=O)NCc3cccc4ccccc34)CC(C(=O)N(C)C)=C2C)cc1 (stereo not drawn),inactive: 1.22%,
COc1ccc(CNc2ncc(-c3ccccc3)n2C)cc1,inactive: -3.18%,
CCC1=NN(C(=O)Cc2ccc(OC)cc2)C(O)(C(F)(F)F)C1 (stereo not drawn),,"inconclusive [cytotoxic, single point]"
Cc1nc(NC(N)=S)sc1C(=O)Nc1ccccc1,,"inconclusive [cytotoxic, single point]"

Compound,"activity, negative = toxicity",Potency
CC(C)COC(=O)N1C[C@H](O)C[C@H]1C(=O)Nc1ccc(Cl)cc1,inactive: 4.79%,
COc1ccc(N2CCN(CCCNC(=O)c3cc4sccc4n3C)CC2)cc1,,"inconclusive [cytotoxic, single point]"
O=C1CC(c2ccc(S(=O)(=O)N3CCN(c4ccccc4)CC3)cc2)CN1 (stereo not drawn),,"inconclusive [rising, partial curve]"
COC(=O)C1=C(C)N(Cc2ccccc2)C(=NCc2ccccc2)N[C@H]1c1cccc(C(F)(F)F)c1,,"inconclusive [cytotoxic, single point]"
c1ccc(Cn2c(CNc3nc4ccccc4n3CCN3CCOCC3)nc3ccccc32)cc1,,"inconclusive [cytotoxic, single point]"
c1ccc2c(c1)[nH]c1c(NCC3CCCO3)ncnc12 (stereo not drawn),,"inconclusive [cytotoxic, single point]"
O=C(CSc1nnc(-c2cccnc2)o1)Nc1ccc(Cl)cc1,,"inconclusive [rising, partial curve]"
CC(C)CNC(=S)N1CCN(c2nc(-c3ccc(Cl)cc3)cs2)CC1,,"inconclusive [cytotoxic, partial curve]"
O=C(N/N=C/c1ccccc1O)C1CCCC1,,active: 23.1 µM
COc1ccc2oc(C(=O)N(Cc3ccco3)Cc3cccs3)c(C)c2c1,inactive: -0.0879%,
CC(NC(=O)c1ccc(-c2ccccc2)cc1)C(c1ccccc1)N1CCOCC1 (stereo not drawn),inactive: -17.2%,
CCOC(=O)c1c(CN(C)C)n(-c2ccccc2)c2cc(Br)c(OC)cc12,,"inconclusive [cytotoxic, single point]"
Cc1ccc(C=Nc2ccccc2C(N)=O)cc1,,active: 5.62 µM
Cc1nn(-c2ccccc2)c(Cl)c1/C=N/NC(=O)c1[nH]ncc1Br,inactive: -11.7%,
Cc1nc2cc(C(F)(F)F)ccc2n1CCNc1nc(-c2ccc(F)cc2)cs1,inactive: -0.48%,
O=C(CN1CC[n+]2c(-c3cccs3)csc21)c1ccc(-c2ccccc2)cc1,,"inconclusive [cytotoxic, single point]"
N#CC1=C(N)NC(=S)C(C(N)=O)C1c1ccccc1F (stereo not drawn),,"inconclusive [cytotoxic, partial curve, poor fit]"
CC1=C/C(=C\C=C(C#N)C#N)N(C)c2ccccc21,,"inconclusive [rising, full curve]"
Cn1cc(CN2CCC(C(=O)Nc3cccc(-c4cccc(F)c4)c3)CC2)cn1,,active: 23.1 µM
C=CCOC(=O)C1=C(C)NC(SCC(=O)Nc2nccs2)=C(C#N)C1c1cccs1 (stereo not drawn),,"inconclusive [cytotoxic, single point]"
O=C(C[n+]1ccc(/C=C/c2ccccc2)cc1)c1ccc2c(c1)OCCO2,,active: 16.4 µM
OC1(CNCc2cn[nH]c2-c2cc3ccccc3o2)CCCCC1,,"inconclusive [cytotoxic, partial curve]"
COc1cc(OC)c(C2C(C#N)=C(N)OC3=C2C(=O)CC(C)(C)C3)cc1OC (stereo not drawn),,"inconclusive [cytotoxic, single point]"

Compound,"activity, negative = toxicity",Potency
COc1cc(C(=O)NCCOc2cc(C)cc(C)c2)cc(OC)c1OC,,active: 7.31 µM
O=C(CN1C(=O)NC2(CCCCCC2)C1=O)Nc1ccc(OC(F)(F)F)cc1,,"inconclusive [cytotoxic, single point]"
Cn1c(N)c(C(=O)COC(=O)c2cc(S(=O)(=O)N3CCOCC3)ccc2F)c(=O)n(C)c1=O,,"inconclusive [cytotoxic, single point]"
Cc1ccc(-c2nnn(CC(=O)NCc3ccccc3)n2)c(-n2cnnn2)c1,,"inconclusive [cytotoxic, single point]"
COc1cccc(N2CCN(CC(=O)N3CCN(S(=O)(=O)c4ccc(Cl)cc4)CC3)CC2)c1,inactive: -7.68%,
O=C(c1ccc(C(F)(F)F)cc1)C1CCCN(Cc2cccn2-c2ncccn2)C1 (stereo not drawn),,"inconclusive [cytotoxic, partial curve]"
O=C(NCCS(=O)(=O)N1CCN(c2cccc(Cl)c2)CC1)C1CCCC1,inactive: -0.283%,
O=C(OCc1ccccc1)N1CCC2CC1c1ccc(/C=C/CCCCl)cc12 (stereo not drawn),,"inconclusive [cytotoxic, single point]"
CCOc1cc2c(cc1O)CCC1C2CCC2(C)C(O)CCC12 (stereo not drawn),,"inconclusive [cytotoxic, full curve]"
CCC(=O)c1ccc(OCC(=O)OCC(=O)c2cc(C)n(CC3CCCO3)c2C)cc1 (stereo not drawn),inactive: 0.17%,
Cc1ccc(C(O)c2ncc(-c3ccc(Cl)cc3)[nH]2)cc1 (stereo not drawn),inconclusive: -40.1%,
CC(Nc1cccc2ccccc12)C(=O)N/N=C/c1ccccn1 (stereo not drawn),,active: 7.08 µM
COc1ccc(/C=c2/sc3n(c2=O)C(c2ccccc2OC)C2=C(N=3)c3ccccc3CC2)cc1O (stereo not drawn),,active: 25.9 µM
CCCCc1c(-c2ccc(F)cc2F)ncn1CCc1ccccc1OC,,"inconclusive [cytotoxic, single point]"
COc1ccc(NC(=O)C(=O)N2N=C(C(C)C)CC2(O)C(F)(F)F)cc1 (stereo not drawn),,active: 8.91 µM
COCCN(C(=O)C1CC(=O)N(Cc2ccc(C)cc2)C1)c1c(N)n(CC(C)C)c(=O)[nH]c1=O (stereo not drawn),,"inconclusive [cytotoxic, single point]"
C=CC[C@@H](CC(=O)N(CCO)Cc1ccccc1)C(=O)N[C@H](COC(=O)[C@H](CC=C)CC(=O)OC(C)(C)C)Cc1c[nH]c2ccccc12,,"inconclusive [cytotoxic, single point]"
Cc1ccc(NC(=O)CNc2ccc(Cl)c(Cl)c2)cc1S(=O)(=O)N(C)C,,"inconclusive [cytotoxic, full curve]"
CCOc1ccccc1NC(=O)c1cccc(NC(=O)c2ccco2)c1,,active: 2.31 µM
COc1ccc(Cc2c(-c3cccc(Cl)c3)nc3ccc(C)cn23)c(C)c1,,"inconclusive [cytotoxic, single point]"
Cc1cc(N2CCCCC2)nc(NCc2ccccc2)n1,,"inconclusive [cytotoxic, single point]"
Cc1c(O)c(CN2CCCCC2)cc2c1oc(=O)c1ccccc12,inactive: -1.9%,

# — PubChem BioAssay AID686971 (National Center for Advancing Translational Sciences (NCATS), 2013)
